Data on 68 compounds can be found in PubChem BioAssay AID1362 (SRMLSC, 2008).

As usually defined, the inhibition is the change of the read-out against control, counted positive when it falls.

This is one part of the list. These are further read-outs of the screen, such as a control signal, another cell line or another target. No call is given for them. The list favours compounds with an active or inconclusive main result.

A short description of this test: growth inhibition of WT strain, primary screen, mitochondrial fusion inhibitor project, WT and mutant strains, chemical genetic (AID 1362). Also: tested in S. cerevisiae. To be noted: mitochondrial fusion phenotypic screen, at 10 µM.
Consider `Cc1cc(C)c2nc(NNC(=O)c3cc(-c4cccs4)nc4ccccc34)sc2c1`, for which the inhibition amounted to 46.6%. Regarding `O=C(NC(=S)Nc1ccc(Cl)cn1)C(c1ccccc1)c1ccccc1`, the inhibition was 67.1%. Regarding `CC1=CC(C)(C)N(S(=O)(=O)c2ccc(C)cc2)c2ccc(C)cc21`, the inhibition turned out to be 15%. In the case of `O=C(OC(c1ccc(NS(=O)(=O)c2ccccc2)cc1)(C(F)(F)F)C(F)(F)F)c1ccccc1` it was -9.15%; in that of `Cn1c(Cc2ccccc2)nnc1SCC(=O)c1ccc(Br)s1`, 6.12%.

Consider `O=C(COc1ccccc1-c1ccccc1)NCc1cccc(Cl)c1`, for which the inhibition came out at 24.9%. On to `COc1ccc(S(=O)(=O)NCCSCc2cccc(C)c2)cc1Br`, for which the inhibition turned out to be 18.9%. For the compound `COc1ccccc1Nc1ncnc2nc[nH]c12`, the inhibition stood at 9.22%. Turning to `S=c1nc2ccccc2c2nc(-c3ccccc3)[nH]n12`, the inhibition stood at 67%.

Consider `Cc1ccccc1CSCCNC(=S)Nc1ccccc1`, for which the inhibition came to 66.7%. With `O=c1[nH]c(-c2ccccn2)nc2sc(-c3ccccc3)cc12`, the inhibition is 64.7%. For the compound `Cc1cccc(NC(=S)N/N=C2/CCCCc3ccccc32)c1`, the inhibition came out at 51.9%. With `CCOC(=O)N1CCN(C(=O)CN(C)S(=O)(=O)c2ccc3c(c2)C(C)(C)C(=O)N3C)CC1`, the inhibition was -0.52%. Consider `Cc1ccc(Nc2nc(N)c([N+](=O)[O-])c(N3CCC(C)CC3)n2)cc1C`, for which the inhibition stood at 67.7%. With `Cc1ccc2nc(N(CCCN(C)C)C(=O)c3ccc(Br)s3)sc2c1`, the inhibition came out at 88.6%. In the case of `CC(C)Cn1c(-c2csc(C(C)C)c2)n[nH]c1=S`, the inhibition is 48.3%. For `NC(=S)n1[nH]c(-c2ccc([N+](=O)[O-])cc2)c(N=Nc2cccc(Cl)c2)c1=O`, the inhibition is 29.8%. As to `Nc1ccccc1Nc1cc(-c2cccc(Cl)c2)nn1-c1ccccc1`, the inhibition is 27.3%. As for `O=C(NC1=C(Nc2ccc(Cl)cc2)C(=O)c2ccccc2C1=O)c1ccccc1`, the inhibition was determined as 61.1%.

Take `c1ccc(Cn2c(CNc3nc4ccccc4n3CCN3CCCCC3)nc3ccccc32)cc1`: the inhibition is 8.83%. As to `CC(C)(C)n1nnnc1C(c1cccs1)N(Cc1cccnc1)Cc1ccccc1Cl` (stereo not drawn), the inhibition is -2.11%. The figure for `COc1ccc(C2CC(c3cccs3)=NN2C(=O)c2ccc(Br)o2)cc1` (stereo not drawn) is 41.4%; for `COc1ccc(C(C)=O)cc1CSc1nc2ccccc2c(=O)n1-c1cccc(C)c1` it is 31.8%; for `S=c1nc[nH]c2c1sc1nc(-c3ccccc3)c3c(c12)CCCC3` it is 93.3%.

Consider `Nc1ccc2nn(-c3ccccc3)nc2c1`, for which the inhibition stood at 5.2%. For the compound `CC1(C)CC2CC(C)(CN2C(=O)c2cc(-c3ccccc3O)on2)C1` (stereo not drawn), the inhibition worked out at 40.1%. `Clc1ccc(N/N=C/c2cccnc2)cc1`: the inhibition was found to be 56.7%.

As to `Cc1coc(C)c1C(=O)CC1(O)C(=O)Nc2cc(Cl)cc(Cl)c21` (stereo not drawn), the inhibition is 4.65%. In the case of `CCCN1C(=O)c2ccccc2NC1c1ccc(OC)c(CSc2ccccn2)c1` (stereo not drawn) it was 27.5%. Regarding `Cc1ncsc1C(=O)Nc1nc2c(s1)CC(C)CC2` (stereo not drawn), the inhibition is -8.69%. The figure for `Cc1ccc(-n2cccc2C(=S)N=P(N(C)C)(N(C)C)N(C)C)cc1` is 6.13%. In the case of `CC1CCCCC1NC(=S)Nc1ccc(SC(F)F)cc1` (stereo not drawn) it was 29.6%; in that of `CC1CCN(c2nc(Cl)nc(Nc3ccc([N+](=O)[O-])cc3)n2)CC1`, 9.32%. `O=C(NC(=S)N1CCN(Cc2ccc3c(c2)OCO3)CC1)c1ccc(Cl)cc1`: the inhibition worked out at 38.5%.

With `Cc1cc(C(=O)N2CCc3c([nH]c4ccccc34)C2c2cccc(Cl)c2)nn1C` (stereo not drawn), the inhibition is 47.5%. `CCOC(=O)c1c(-c2cccs2)csc1NC(=O)C(C)(C)C`: the inhibition was -1.72%.

Take `CCOC(=O)C1CCN(S(=O)(=O)c2c(C)n[nH]c2C)CC1`: the inhibition was 0%. Take `COc1cc(NC(=O)c2ccc(C(C)(C)C)cc2)c(OC)cc1NC(=O)CN1CCCCC1`: the inhibition was 64.6%. On to `O=C(CCn1nc(-c2ccccc2)c2ccccc2c1=O)NCC1CCCO1` (stereo not drawn), for which the inhibition was 3.78%. For `CN(C)c1ccc(N=Nc2ccccc2C(=O)OCC(=O)NCC2CCCCC2)cc1`, the inhibition worked out at 38.4%.

`CCN1/C(=C/c2ccc3cc(C)ccc3[n+]2CC)Sc2cc(C)c(C)cc21`: the inhibition amounted to 89%. Take `CCCCN(C(=O)c1cccc2c(=O)c(C)c(-c3ccccc3)oc12)c1ccccc1`: the inhibition is 23.4%. For the compound `COc1cccc2sc(Nc3nc(-c4ccccn4)cs3)nc12`, the inhibition stood at 57.5%. In the case of `CC(C)C(=O)N1CCN(c2ccc(NC(=O)c3ccc([N+](=O)[O-])o3)cc2Cl)CC1` it was 90.3%. Consider `Cc1ccc(C(c2nnnn2CCc2ccccc2)N2CCC(C)CC2)cc1` (stereo not drawn), for which the inhibition turned out to be 7.61%. Regarding `CN(C)C(=O)/C(C#N)=C\c1cc(Br)c(Sc2ccc(Cl)cc2)o1`, the inhibition stood at 32.9%. With `O=[N+]([O-])c1cc(/C=N/O)ccc1Oc1cccc(Cl)c1`, the inhibition was 37.8%. For `O=C(NCCc1ccc(Cl)cc1)Nc1cccc(Cl)c1`, the inhibition came out at 23.3%. Turning to `Cc1ccc(-c2cc(C(=O)N3CCCc4ccccc43)no2)cc1`, the inhibition worked out at 46.7%.

Turning to `CC(C)(C)NC(=O)NC(=O)COC(=O)Cc1coc2ccc3ccccc3c12`, the inhibition turned out to be 8.56%. As to `COc1ccc(C2C(C#N)=C(C)NC3=C2S(=O)(=O)c2ccccc23)cc1` (stereo not drawn), the inhibition was 17.7%.

Turning to `COc1ccc(N2CCN(c3c(S(=O)(=O)c4ccccc4)cnc4ccc(OC)cc34)CC2)cc1`, the inhibition stood at 30.7%.

Turning to `CN1CCN(C2=Cc3ccccc3Sc3cc(F)c(Cl)cc32)CC1`, the inhibition was found to be 96.7%. The figure for `O=C(CCCCCn1c(=S)[nH]c2cc3c(cc2c1=O)OCO3)N1CCN(C(=O)c2ccco2)CC1` is -5.4%; for `Cc1ccc(NC(=O)c2nc[nH]c2C(=O)N[C@@H](C)c2ccccc2)cc1` it is 65.2%; for `C=CCc1ccc(O)c(-c2ccc(O)c(CC=C)c2)c1` it is 25.5%.

On to `CCN(CC)c1ccc(/C=C(\C#N)c2ccccn2)cc1`, for which the inhibition stood at 24.4%.

Regarding `O=C(Nc1nnc(C2=COCCO2)o1)c1ccc(Cl)cc1`, the inhibition is 39.4%. With `S=C(NCCCN1CCOCC1)N1CCN(c2nc(-c3ccc(Cl)cc3)cs2)CC1`, the inhibition was found to be 44.1%.

With `CC(C)CCNC(=O)CCCOc1cc(=O)n(C)c2ccccc12`, the inhibition was 12.1%. In the case of `Cc1cc(Cl)cc(C)c1OCCCCn1ccnc1` it was 68.1%. For `CCCCC(=O)NC(c1ccc([N+](=O)[O-])cc1)c1c(O)ccc2ccccc12` (stereo not drawn), the inhibition worked out at 23.8%.

`O=C(Nc1nc(-c2cccs2)c(C(=O)C(F)(F)F)s1)c1ccccc1`: the inhibition came to 16.3%. In the case of `COCC(C)NC(=S)NCCc1ccc(Cl)cc1Cl` (stereo not drawn), the inhibition was 35.1%. For the compound `c1ccc(-c2nnn(C34CC5CC(CC(C5)C3)C4)n2)cc1`, the inhibition was 59.3%.

Take `O=C(c1ccc(Cn2c(=S)[nH]c3ccc(Br)cc3c2=O)cc1)N1CCN(C2CCCCC2)CC1`: the inhibition turned out to be 52.9%. For `Cc1cc(=O)n2[nH]c(-c3ccc(F)cc3)cc2n1`, the inhibition came out at 5.26%. With `CCCCCCc1nc2ccccc2c(=O)n1NC(=O)c1c(O)c2cccc3c2n(c1=O)CCC3`, the inhibition is -4.38%.
